Data from the supplement of paper PMC3334620.
Whole data set: some 33,000 sequences, median “E-score (-0.5 to 0.5)” near -0.054, cut for the highest 2% near 0.39. The list shows a part of the results.

Target: Ylr278c (UniProt Q05854)
Experiment: PBM E-score (8-mer binding enrichment) (E-score (-0.5 to 0.5)); higher = stronger / more preferred TF binding; most listed sequences are background and not binding sites
Conditions: protein concentration: 200 nM; construct: GST-DNA-binding domain
How it was run: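 The E-score, a modified Wilcoxon-Mann-Whitney statistic, was computed by the Universal PBM Analysis Suite for every ungapped eight-base word pooled with its reverse complement. Scans behind it were normalised with masliner after bound GST-tagged yeast transcription factors were detected with fluorescent anti-GST. The proteins, at about 100-200 nM, had been applied to universal all-10-mer Agilent arrays made double-stranded by primer extension.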

| Sequence | PBM E-score |
| --- | --- |
| GTTACGAA | -0.00304 |
| CAGCCCGC | -0.0821 |
| GACTAGAC | -0.291 |
| CAAACACG | -0.0958 |
| TGCGCTAA | 0.0463 |
| GCCGTTCC | 0.123 |
| ATTGGCAG | -0.0574 |
| TATCTTGA | -0.0421 |
| CAGCAAAG | -0.117 |
| ACGCTGCC | 0.0211 |
| AAACAATA | 0.158 |
| AGTCTCTC | -0.131 |
| GTCTCGAA | -0.299 |
| GACATAGA | -0.106 |
| CTCAAAAG | -0.0564 |
| CGTATGCC | 0.107 |
| TACCGCCA | 0.126 |
| GCGCCAGA | -0.116 |
| TCCATTAA | -5e-05 |
| AAAGTGCG | 0.203 |
| GTATCCAC | -0.171 |
| TTAGCAAA | -0.0537 |
| ATTCATAG | -0.222 |
| GCTTGTAC | -0.0773 |
| CAATTGGC | -0.083 |

| Sequence | PBM E-score |
| --- | --- |
| ACCGAACA | 0.0403 |
| CCGGAGCA | 0.473 |
| TGTACAAA | -0.0126 |
| AGCTCTGC | -0.265 |
| AGCTTGCG | -0.124 |
| AATGTAGA | -0.0393 |
| AGAGTTAG | 0.0221 |
| CTGTATAA | -0.0726 |
| AAATTAAT | 0.0494 |
| TGACGCCA | -0.259 |
| GAGCCGAC | 0.114 |
| CGCCTATA | 0.173 |
| CCTACACC | -0.00674 |
| GCCTTAGA | -0.055 |
| CATATGGA | -0.198 |
| CTGAGAAG | -0.149 |
| ATTGCCCA | -0.185 |
| GACGGAGA | 0.453 |
| ACTAACCC | 0.00135 |
| AGTCATCG | -0.00753 |
| TCGTGTAA | -0.0614 |
| CGGGTCAG | 0.246 |
| CGCGAAAG | 0.0257 |
| CTTACTAA | -0.181 |
| GATGAGAC | -0.0509 |

| Sequence | PBM E-score |
| --- | --- |
| CTGCCTTC | -0.115 |
| GCTCACCC | -0.0345 |
| AAGCCCAT | -0.169 |
| AAGGCCAA | -0.179 |
| AACATCAT | -0.25 |
| CCTATTGA | -0.216 |
| AGACCTAT | -0.173 |
| AGGCGTCC | 0.0368 |
| GGCGGAAC | 0.349 |
| CATCCAGC | -0.211 |
| CCATGGCC | -0.189 |
| GAGCTAGA | -0.0445 |
| AACAAAAG | -0.201 |
| GACTCTTA | -0.0113 |
| CCCTGAAC | 0.0392 |
| CTCTGAGA | -0.29 |
| ATGTCTTG | 0.117 |
| AAGCGAAG | -0.0624 |
| AGTGAATG | 0.155 |
| ACAATCAT | -0.042 |
| GCGCAAGA | 0.0388 |
| TACGATCA | -0.19 |
| CGTGTATA | -0.00214 |
| ATAGCGCA | -0.103 |
| AATCATCA | -0.153 |

| Sequence | PBM E-score |
| --- | --- |
| CATGGAAA | 0.0561 |
| ACAGCAGG | 0.0378 |
| GAGTGGGA | -0.0135 |
| CCCATTAA | -0.317 |
| CCACGCGG | 0.204 |
| GAAGCATA | -0.155 |
| GCTATTTA | -0.0413 |
| ATGACGGA | 0.279 |
| ACGCACTG | -0.0303 |
| AAAAGACA | 0.0411 |
| CTGTTTAC | -0.172 |
| ACTCTGCC | -0.253 |
| ACCGAGAA | 0.109 |
| CTCCTAAC | -0.157 |
| AATTCATA | -0.14 |
| CCAGTTAA | -0.0482 |
| GTTATCCA | 0.0894 |
| CCATAGAC | -0.248 |
| GACCGTCC | 0.154 |
| AACACGTA | -0.019 |
| AACGTAGG | -0.206 |
| CCAAACAG | -0.257 |
| GAGTAGAC | -0.0763 |
| CAAAGCTC | 0.0257 |
| GAGCGCTA | -0.0438 |

| Sequence | PBM E-score |
| --- | --- |
| GCCAGGAA | -0.15 |
| AGTGACAT | -0.025 |
| AGATTCCT | -0.257 |
| GCCTATAC | -0.109 |
| CAAGTAAG | -0.235 |
| AAACGATT | 0.0105 |
| CAGCGAGG | -0.178 |
| GCATCTGA | -0.182 |
| CCATTTGC | 0.0398 |
| ACGAACCA | -0.125 |
| GGTCACGA | -0.143 |
| CGGCAGAA | 0.204 |
| TGGAACCA | -0.0348 |
| CAAGGTGA | -0.17 |
| ATAACCGA | 0.0895 |
| GCAGTGCC | -0.17 |
| ATATGTCA | -0.0665 |
| TCACAAGA | -0.163 |
| ATGCGTAC | -0.0495 |
| GTTTGCGA | -0.0942 |
| CGCCGAAC | 0.315 |
| CGCAGCCA | -0.00269 |
| GAGTGAGA | 0.0798 |
| ATAGCCAT | -0.115 |
| AGTTGGGA | -0.192 |

| Sequence | PBM E-score |
| --- | --- |
| CTACCAGA | 0.0262 |
| ACGACACA | -0.274 |
| ATAGCTCG | -0.0396 |
| CTGATGAA | -0.33 |
| AACCTGTC | -0.114 |
| ATTCGACC | -0.155 |
| CGCGTTCC | 0.198 |
| TGTAATAA | -0.0936 |
| AATGAAGC | -0.148 |
| CCCTGTCC | -0.128 |
| GACTTGAC | -0.059 |
| CCGTCTTA | -0.0532 |
| GCGGCAAA | 0.238 |
| AATCCCCC | 0.0792 |
| ATGTAATC | -0.125 |
| AATCGCTG | 0.0495 |
| CGAATGTA | 0.0699 |
| CAGCAAGA | -0.136 |
| CGCCATTA | -0.0002 |
| CTGCAAAC | -0.201 |
| CTCCTAAA | -0.229 |
| CAATATTA | 0.0196 |
| TAGGAAAA | -0.132 |
| ACCGCTTA | -0.109 |
| AAGCTCGG | 0.256 |

| Sequence | PBM E-score |
| --- | --- |
| AGAGATTG | -0.112 |
| AGAGCTGA | -0.229 |
| ATTGTTCC | 0.266 |
| AGGCGGAG | 0.39 |
| AGTCGGCA | 0.202 |
| GCGCAGCC | 0.0388 |
| TACCGAAA | 0.161 |
| TACACAGA | -0.219 |
| CCTTACAC | -0.0955 |
| AACAAGCG | 0.145 |
| ATGCTTAG | -0.155 |
| AAGAAGCT | -0.0842 |
| CTTAGCGA | -0.0726 |
| GCGTTGCC | 0.0752 |
| GACCATTA | -0.00105 |
| ACTTACAC | -0.145 |
| AGCGCCTG | 0.0474 |
| CAATGTCG | 0.0163 |
| AATGAGTC | 0.0416 |
| GGACGCCA | -0.11 |
| GCCGACCA | 0.149 |
| CATAGGGG | -0.0405 |
